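The compound was tested at five concentrations on cells cultured in 96-well plates, with a 48-hour exposure period. Here, GI50 denotes the concentration required for 50% inhibition of growth. The concentration for full growth arrest is given as TGI.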
Test system: NCI-H322M lung
Assay: inhibition of tumour cell growth, NCI panel, 48 h

| Compound | GI50 [µM] | TGI [µM] |
| --- | --- | --- |
| CSc1ccccc1NC(=O)c1ccc2nn(/C(C#N)=C/c3ccccn3)nc2c1 | 13.8 | 27.2 |
| Clc1ccccc1Nc1nnc(-c2c[nH]c3ccccc23)o1 | 4.39 | > 100 |
| COc1ccccc1/C=C/C(=O)c1ccc(OC)c(S(N)(=O)=O)c1 | 3.19 | 12.8 |

From PubChem BioAssay (NCI)
